± gives the standard error. Variants at the background level are over-represented here.
B1: glmS ribozyme (parent)
chain: AUAAAAGCGCCAGAACUACAGAAAUGUAGUUGACGAGGAGGAGGUUUAUCGAAUUUUCGGCGGAUGCCUCCAAA

Variants of: B1
Assay: self-cleavage kobs at 10000 uM GlcN6P; higher = faster cleavage; RNA array
Conditions: with glucosamine-6-phosphate
In short: (§1)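 On sequenced MiSeq chips, barcoded ribozyme variants were made in situ by E. coli RNA polymerase and followed at 37 °C through a hybridised Cy3 probe. Glucosamine-6-phosphate was flowed in at 40 μM to 10 mM in HEPES/KCl/Mg(OAc)2 buffer. Exponential fits to normalised per-tile medians gave kobs, and weighted Michaelis–Menten fits gave kcat and KM.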

Row | Variant | self-cleavage kobs at 10000 uM GlcN6P
1 | A12G G32C A48C G59C | < 1e-05 s⁻¹
2 | A33C A52G U54A | < 1e-05 s⁻¹
3 | A6U U46A C58U U65C G66U | < 1e-05 s⁻¹
4 | A36G U54G G63C | < 1e-05 s⁻¹
5 | U30C C50A U55G | < 1e-05 s⁻¹
6 | A33U C50A G66A | < 1e-05 s⁻¹
7 | C16U A36U A39U | < 1e-05 s⁻¹
8 | G43A U55A | 8.23e-05 ± 1.2e-05 s⁻¹
9 | G7C C10A A48U G59A U65C | < 1e-05 s⁻¹
10 | A15C A42C C67G C68U | < 1e-05 s⁻¹
11 | G59C G63C C70A | < 1e-05 s⁻¹
12 | G13C G35U U54C | < 1e-05 s⁻¹
13 | U55G C61A C71G | < 1e-05 s⁻¹
14 | U30G U47C C68U | 0.000171 ± 3.3e-05 s⁻¹
15 | A12U U31C U49C G63C | < 1e-05 s⁻¹
16 | G41C U57G | < 1e-05 s⁻¹
17 | A6U A39U U54A G60U | < 1e-05 s⁻¹
18 | G13U C16A U27C U30A C50A | < 1e-05 s⁻¹
19 | C11G G41A G43C | < 1e-05 s⁻¹
20 | A14U A53C C67U | 0.000208 ± 3.8e-05 s⁻¹
21 | C16U A42U G60C | < 1e-05 s⁻¹
22 | C11A A52C | < 1e-05 s⁻¹
23 | A15U G21U | 0.00395 ± 0.00079 s⁻¹
24 | C16A U31G G38U A53G | < 1e-05 s⁻¹

Row | Variant | self-cleavage kobs at 10000 uM GlcN6P
25 | G44A G51U U57A | < 1e-05 s⁻¹
26 | A6U G35U G37C A53G | < 1e-05 s⁻¹
27 | C16A G29U U45G | 0.0036 ± 0.00061 s⁻¹
28 | G13C C16A A36U | < 1e-05 s⁻¹
29 | C11U C50G C70G | 3.88e-05 ± 1.4e-05 s⁻¹
30 | C16A C50A U65G | < 1e-05 s⁻¹
31 | C50A G51U G59A U69A | < 1e-05 s⁻¹
32 | C8G U30A A39G G41C U54G C67A | < 1e-05 s⁻¹
33 | G40A C58A G62U | < 1e-05 s⁻¹
34 | C10G A15U A48C U56G | < 1e-05 s⁻¹
35 | G35A U49C G63U | < 1e-05 s⁻¹
36 | C8U G13A U46G A48C U65G | < 1e-05 s⁻¹
37 | G35U A39G A42U A64G | < 1e-05 s⁻¹
38 | G7U U30G U57G C67A | < 1e-05 s⁻¹
39 | G38U G59A C67U | < 1e-05 s⁻¹
40 | A39C U56G G59A | < 1e-05 s⁻¹
41 | G9C G35C C61U | < 1e-05 s⁻¹
42 | G32C U49C C50U U54A | < 1e-05 s⁻¹
43 | A12U A33U C67U | 0.000146 ± 2.9e-05 s⁻¹
44 | A48U C71A | 0.000111 ± 1.4e-05 s⁻¹
45 | G7U G37C G41C | < 1e-05 s⁻¹
46 | U57A G60A C61A | < 1e-05 s⁻¹
47 | A6U G29U G35C C50U U56C | < 1e-05 s⁻¹
48 | G7C G32U G38C | < 1e-05 s⁻¹

Row | Variant | self-cleavage kobs at 10000 uM GlcN6P
49 | C8G G32C G35A G43C | < 1e-05 s⁻¹
50 | C11A C16G G60U | < 1e-05 s⁻¹
51 | G7C G32U G41A U45C G62C | < 1e-05 s⁻¹
52 | G29A G43U G51A | < 1e-05 s⁻¹
53 | A6C C19A G51C | < 1e-05 s⁻¹
54 | G7A A39U G43U | < 1e-05 s⁻¹
55 | G32U C34U G40A U65C C67U C71G | < 1e-05 s⁻¹
56 | G9C C16G A48U | < 1e-05 s⁻¹
57 | G9C C68G C71A | < 1e-05 s⁻¹
58 | A12U A42U C70U | 0.00014 ± 3.1e-05 s⁻¹
59 | U31A A48U C58A C68U | < 1e-05 s⁻¹
60 | C61G C68G U69A | < 1e-05 s⁻¹
61 | A53U U57G G60C | < 1e-05 s⁻¹
62 | C16G U45C C67G | 0.000811 ± 0.00018 s⁻¹
63 | G7U C11G C68U | < 1e-05 s⁻¹
64 | C10A G60C G66U | < 1e-05 s⁻¹
65 | C34U A42U G63C C67U C71U | < 1e-05 s⁻¹
66 | G9C G13C A14U U31A A48G C61A | < 1e-05 s⁻¹
67 | C10U A12G G38U | < 1e-05 s⁻¹
68 | G40A U45A G66A | 0.00649 ± 0.0018 s⁻¹
69 | A15U A36U A39C | < 1e-05 s⁻¹
70 | A6G U54A U56A | 0.000141 ± 2.8e-05 s⁻¹
71 | G35U G38C A42C | < 1e-05 s⁻¹
72 | G7A G60A G62U | < 1e-05 s⁻¹

Row | Variant | self-cleavage kobs at 10000 uM GlcN6P
73 | A6C C16G U31C C34G C68A | < 1e-05 s⁻¹
74 | A6C C8U G38C G43C | < 1e-05 s⁻¹
75 | C11A U54G A64G U69G | 9.78e-05 ± 2.2e-05 s⁻¹
76 | A36G U46A U55G | < 1e-05 s⁻¹
77 | U31C G32C A64C C68A | < 1e-05 s⁻¹
78 | C61U C68A C71U | < 1e-05 s⁻¹
79 | G41A C50U U55G G63A | < 1e-05 s⁻¹
80 | G7C A14G A39C A48G A53U | < 1e-05 s⁻¹
81 | A42C G66A C67A C68U C71U | < 1e-05 s⁻¹
82 | A14U G44U U45G U46G | 4.76e-05 ± 1.9e-05 s⁻¹
83 | C10G C50U G62U C70G | < 1e-05 s⁻¹
84 | G9C A53G C71U | < 1e-05 s⁻¹
85 | G13U U54A U56C | 0.000163 ± 3.3e-05 s⁻¹
86 | A6U C11A G62A C71U | < 1e-05 s⁻¹
87 | G43U C58U G63A C68A | < 1e-05 s⁻¹
88 | C16A G35U G44A U69G C70G | < 1e-05 s⁻¹
89 | U47C A48C C67G | < 1e-05 s⁻¹
90 | A12U C16U G38U A42U | < 1e-05 s⁻¹
91 | G29U U31G G32C C67A C68G | 5.79e-05 ± 2.8e-05 s⁻¹
92 | A33G G37A U69G | < 1e-05 s⁻¹
93 | C11A G38C C58A | < 1e-05 s⁻¹
94 | A33U G38U U54C | < 1e-05 s⁻¹
95 | A6U G40U G43A G59U | < 1e-05 s⁻¹
96 | U45G G59A C71A | < 1e-05 s⁻¹

Row | Variant | self-cleavage kobs at 10000 uM GlcN6P
97 | U30G G35C A52U C67G | < 1e-05 s⁻¹
98 | C8G G37C A53U | < 1e-05 s⁻¹
99 | A14U C50G G62A A64G | 0.000115 ± 2.4e-05 s⁻¹
100 | G44A U46A | 0.000375 ± 6.2e-05 s⁻¹
101 | C8A C11G U49C C67G | < 1e-05 s⁻¹
102 | A6U U56A G60C | < 1e-05 s⁻¹
103 | C8G G41C G63A | < 1e-05 s⁻¹
104 | G40C G41C C50G C61U | < 1e-05 s⁻¹
105 | A14U U31C G38U | < 1e-05 s⁻¹
106 | C10U G13A | < 1e-05 s⁻¹
107 | C16A U30C A53C C70G | < 1e-05 s⁻¹
108 | G9C A33C U57C C61U G62U C71A | < 1e-05 s⁻¹
109 | G9A U55G C58G | < 1e-05 s⁻¹
110 | G35A G37C A52U U65G C70A | < 1e-05 s⁻¹
111 | A14U A36G A64G C70G | < 1e-05 s⁻¹
112 | C34A A42G G43C G51A | < 1e-05 s⁻¹
113 | G9U G29A U69C | < 1e-05 s⁻¹
114 | A14U C16U G51C C67G | < 1e-05 s⁻¹
115 | C16G G29A G63A | < 1e-05 s⁻¹
116 | G9U C34G G43U U57A | < 1e-05 s⁻¹
117 | A15U C50U C58G | < 1e-05 s⁻¹
118 | U31G G43C U45G | 0.000273 ± 8.2e-05 s⁻¹
119 | G21U A33U C70U | 0.000159 ± 2.9e-05 s⁻¹
120 | U31A G43C C68U | 0.000192 ± 5.2e-05 s⁻¹

Row | Variant | self-cleavage kobs at 10000 uM GlcN6P
121 | A42U A53U | 9.14e-05 ± 8.2e-06 s⁻¹
122 | C10U U54A C68G | < 1e-05 s⁻¹
123 | G38U G41A U45G U56A G59U | < 1e-05 s⁻¹
124 | A36C C50A U65A | < 1e-05 s⁻¹
125 | A15G G29U A36U G38U U69C | < 1e-05 s⁻¹
126 | G41C U49A C70A | < 1e-05 s⁻¹
127 | C16A U49G C68A | < 1e-05 s⁻¹
128 | U56C G59U C70G | < 1e-05 s⁻¹
129 | A15G U49A G62U | < 1e-05 s⁻¹
130 | G13C A15U C58G | 0.000104 ± 1.7e-05 s⁻¹
131 | G41A G44U A52U U57G C68U | < 1e-05 s⁻¹
132 | U54C A64U | 6.16e-05 ± 1.3e-05 s⁻¹
133 | A42G A48U U55G | 0.000404 ± 8.1e-05 s⁻¹
134 | A48G C58U A64U | < 1e-05 s⁻¹
135 | G7A G40C U49G G60U | < 1e-05 s⁻¹
136 | A15G G51U C71A | < 1e-05 s⁻¹
137 | G13U A33C G63A | < 1e-05 s⁻¹
138 | A15U A33G C61A | < 1e-05 s⁻¹
139 | G32U U57G | 5.4e-05 ± 1.4e-05 s⁻¹
140 | C8A G9U A15G | < 1e-05 s⁻¹
141 | G7C A14G G59C | < 1e-05 s⁻¹

Variants of: B1
Assay: self-cleavage kobs at 2500 uM GlcN6P; higher = faster cleavage; RNA array
Conditions: with glucosamine-6-phosphate
In short: as §1

Row | Variant | self-cleavage kobs at 2500 uM GlcN6P
142 | U47A C61G C71U | < 1e-05 s⁻¹
143 | A52C U57C G66U | < 1e-05 s⁻¹
144 | G44A G51U U57A | < 1e-05 s⁻¹
145 | U47A G60U C61A G62C C68U | < 1e-05 s⁻¹
146 | U46G A48U G60U | < 1e-05 s⁻¹
147 | U46G G51A G62A | < 1e-05 s⁻¹
148 | A48U C71A | 0.000102 ± 2.6e-05 s⁻¹
149 | G43A U47G G62A | < 1e-05 s⁻¹
150 | U45A U47C G63U | < 1e-05 s⁻¹
151 | G51A C58U G63A | < 1e-05 s⁻¹
152 | A53U C58G C61G C71G | 0.000415 ± 0.00016 s⁻¹
153 | C61A U65A | < 1e-05 s⁻¹
154 | G51C C67G C71U | < 1e-05 s⁻¹
155 | A42U A48G C61A | < 1e-05 s⁻¹
156 | A42U A52U U55C C70G | < 1e-05 s⁻¹
157 | G43U G44A U65A | < 1e-05 s⁻¹
158 | A42G U54C G59U G60C C61G | < 1e-05 s⁻¹
159 | C68A C71U | 2.17e-05 ± 9.8e-06 s⁻¹
160 | G63C G66A | < 1e-05 s⁻¹
161 | A42U A53U | 8.5e-05 ± 1.5e-05 s⁻¹
162 | C50U C68U | 3e-05 ± 1.2e-05 s⁻¹
163 | A53C U55G G66A | 0.00165 ± 0.00032 s⁻¹
164 | C58U C61G G66U | 6.41e-05 ± 2.3e-05 s⁻¹
165 | U49G A53G U69G | 4.58e-05 ± 1.6e-05 s⁻¹
166 | A52G G59C | < 1e-05 s⁻¹
167 | U54C A64U | 5.96e-05 ± 1.3e-05 s⁻¹
168 | G51U A52U U54G U55C | < 1e-05 s⁻¹
